Among all 310,000 compounds or so, about 2,200 (0.71%) showed an effect of 50% or more. The effect is printed as a negative number. Some of the results follow.
Biological target: human ether-à-go-go-related gene (hERG) potassium channel (human, UniProt Q12809)
Test: primary screen, population patch clamp on CHO cells stably expressing hERG

Chain of human ether-à-go-go-related gene (hERG) potassium channel (Q12809 whole entry, looked up): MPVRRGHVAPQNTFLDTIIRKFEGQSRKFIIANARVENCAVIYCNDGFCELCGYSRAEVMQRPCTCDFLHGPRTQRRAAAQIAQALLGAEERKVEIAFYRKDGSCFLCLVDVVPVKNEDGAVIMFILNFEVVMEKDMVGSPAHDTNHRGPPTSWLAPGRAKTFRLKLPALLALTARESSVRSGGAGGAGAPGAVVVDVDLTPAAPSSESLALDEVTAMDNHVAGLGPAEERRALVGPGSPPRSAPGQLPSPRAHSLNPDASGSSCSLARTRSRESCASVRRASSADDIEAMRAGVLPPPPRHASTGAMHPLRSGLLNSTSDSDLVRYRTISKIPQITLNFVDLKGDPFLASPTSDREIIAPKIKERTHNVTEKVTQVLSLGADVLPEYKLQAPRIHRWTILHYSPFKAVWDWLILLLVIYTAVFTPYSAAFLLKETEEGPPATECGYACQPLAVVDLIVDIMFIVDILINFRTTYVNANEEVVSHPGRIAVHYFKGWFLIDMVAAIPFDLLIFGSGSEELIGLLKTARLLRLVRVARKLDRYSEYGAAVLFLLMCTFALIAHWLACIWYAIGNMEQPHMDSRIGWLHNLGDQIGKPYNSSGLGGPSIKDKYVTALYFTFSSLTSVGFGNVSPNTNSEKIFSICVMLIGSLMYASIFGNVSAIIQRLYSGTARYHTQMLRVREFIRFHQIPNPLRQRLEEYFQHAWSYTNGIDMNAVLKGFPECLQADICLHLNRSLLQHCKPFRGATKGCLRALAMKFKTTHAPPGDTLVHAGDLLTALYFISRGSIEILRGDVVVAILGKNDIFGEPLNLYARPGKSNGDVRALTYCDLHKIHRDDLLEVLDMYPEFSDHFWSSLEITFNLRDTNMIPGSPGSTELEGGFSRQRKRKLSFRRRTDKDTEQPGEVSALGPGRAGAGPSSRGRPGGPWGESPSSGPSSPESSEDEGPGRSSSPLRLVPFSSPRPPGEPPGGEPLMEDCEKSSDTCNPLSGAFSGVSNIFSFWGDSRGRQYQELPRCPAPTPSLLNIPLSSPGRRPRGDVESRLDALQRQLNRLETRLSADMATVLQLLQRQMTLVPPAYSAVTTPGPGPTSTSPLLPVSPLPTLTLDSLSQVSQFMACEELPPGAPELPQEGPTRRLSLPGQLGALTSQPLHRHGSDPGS

Compound | hERG current change (%, negative = inhibition) at 1uM [%]
CCN(Cc1ccccc1)CC(O)COC(c1ccc(OC)cc1)c1ccc(OC)cc1 (stereo not drawn) | -32.9
N#CCSc1nc(-c2ccccc2)c2cc(Cl)ccc2n1 | 8.61
CC(C)N(CCc1ccncc1)C(=S)Nc1ccc(F)c(Cl)c1 | 0.9
COCCNCc1ccc(C(C)C)cc1.Cl | 9.91
CCOc1ccc(C(=O)Nc2cccc3nsnc23)cc1[N+](=O)[O-] | -3.24
Cc1cc(C(=O)NNC(=S)NCC(C)C)cs1 | -2.08
C[n+]1cccc(C2C(C#N)=C(N)Oc3c2ccc2ccccc32)c1.[I-] (stereo not drawn) | 14.4
O=C(Nc1cccc(Cl)c1)OCc1cn(-c2ccc(Cl)cc2)nn1 | -1.66
O=C(O)CCC(=O)Nc1ccccc1C(=O)N1CCN(c2ccc(Cl)cc2)CC1 | 8.54
CCN(CC)CCSc1nc(O)c(-c2ccccc2)c(=O)[nH]1.Cl | 5.05
COC(=O)c1ccc(CS(=O)(=O)c2ccc(F)cc2)o1 | 17.6
Cc1ccc(NC(=O)N2C3CCCC2CC(NC(=O)C(C)(C)C)C3)cc1 (stereo not drawn) | 10.8
O=C1CNC(=S)N1CCCc1ccccc1 | 9.3
COc1ccc(NC(=O)c2cn(-c3ccccc3)nc2SC)cc1 | -1.72
O=C(CN1C(=O)CCC1=O)Nc1cccc(NC(=O)CN2C(=O)CCC2=O)c1 | 13.9
CC1(C)S[C@@H]2[C@H](NC(=O)C(NC(=O)N3CCNC3=O)c3ccccc3)C(=O)N2[C@H]1C(=O)O (stereo partly drawn) | 9.81
O=C(CNc1ccc(Cl)cc1)NNC(=S)NCc1ccccc1 | 5.46
Fc1cc(NC(=S)NCc2ccc(CNC(=S)Nc3ccc(Cl)c(F)c3)cc2)ccc1Cl | 11.3
CCCC(C)C(=O)Nc1cc([N+](=O)[O-])ccc1F (stereo not drawn) | 0.831
Cc1ccc(C(=O)C2CCNCC2)cc1.Cl | 3.9
COCCn1c(SCC(=O)c2c(N)n(C3CC3)c(=O)[nH]c2=O)nnc1-c1cccc(C)c1 | 8.76
COc1ccccc1Nc1c([N+](=O)[O-])cc(C)cc1[N+](=O)[O-] | 13.6

Compound | hERG current change (%, negative = inhibition) at 1uM [%]
CC(=O)OC(C)(C)/C=C/C(=O)C(C)(O)C1[C@H](O)C[C@@]2(C)C3CC=C4C(CC[C@@H](O)C4(C)C)[C@]3(CO)C(=O)C[C@]12C (stereo partly drawn) | 16.3
CNn1cnc2ccsc2c1=O | 13.1
COCC(=O)N/N=C\c1cccc(OC)c1OC/C=C/c1ccccc1 | 6.63
COc1cc(OC)c(OC)cc1/C=C/C(=O)c1ccc(NS(=O)(=O)c2ccc(C)cc2)cc1 | 4.96
CC(C)CC(NC(=O)C1CCC(C)CC1)C(=O)NCc1ccco1 (stereo not drawn) | 4.11
CC(NCC1COc2ccccc2O1)C(=O)NCc1ccccc1.O=C(O)C(=O)O (stereo not drawn) | 2.75
COc1ccc(C(=O)NC2CC2)cc1OC1CCN(Cc2cc(C)c(C)cc2C)CC1 | -74.1
CCCCCC(=O)Nc1ccc(N2CCOCC2)c(S(=O)(=O)Nc2ccc(OC)cc2)c1 | -15.4
COc1ccc(S(=O)(=O)N2CCOCC2)cc1NC(=O)CSc1nnc(N)s1 | -6.74
NS(=O)(=O)c1ccc(CNC(=O)Cc2ccc(S(=O)(=O)N3CCOCC3)s2)cc1 | -3.3
CC1CC(C)CN(S(=O)(=O)c2ccc(NC(=O)C3CC(=O)N(Cc4ccccc4)C3)cc2)C1 (stereo not drawn) | 17.7
CC1C(=O)N2CCCc3cc(S(=O)(=O)N4CCCCC4)cc1c32 (stereo not drawn) | 9.8
COc1ccc(NS(=O)(=O)c2cccc(C(=O)N/N=C/c3ccccn3)c2)cc1 | 11.3
Cc1ccc(/C=N/NC(=O)c2ccc(C(=O)N/N=C/c3ccc(C)s3)o2)s1 | 15.5
COc1cc2[nH]c(=O)n(C3CCCCC3)c(=O)c2cc1OC | 11
CC(=O)N1CC(C)Oc2ccc(S(=O)(=O)Nc3ccc(Cl)cn3)cc21 (stereo not drawn) | 10.6
O=C(NC(N1CCOCC1)C(Cl)(Cl)Cl)c1ccc(Br)cc1 (stereo not drawn) | 10.9
CCc1ccc(NC(=O)Nc2cnccn2)cc1 | 0.477
CCN(CC)S(=O)(=O)c1csc(C(=O)NCc2ccccc2)c1 | 5.28
CCOC(=O)c1nn(-c2ccc(Cl)cc2)c2nnc(Cc3ccc(C)cc3)c(=O)n12 | 9.03
CCc1nnc(NC(=O)CCC(=O)Nc2ccc(C)cc2)s1 | -3.72
CCOc1ccc(-c2cc(N3C(=O)Nc4ccccc4N3O)n[nH]2)cc1 | 17.4

Compound | hERG current change (%, negative = inhibition) at 1uM [%]
O=C(CNCCO)Nc1ccc(F)c(Cl)c1 | 9.62
CCCCOc1ccc(N2C(N)=NC(N)=NC23CCCCC3)cc1.Cl | 7.04
CCc1nnc(NC(=O)CCC(=O)NCc2ccccc2OC)s1 | 5.67
COc1ccc(NC(=O)CN2CCN(S(=O)(=O)N(C)C)CC2)cc1 | 13.9
CCCCCC1CC(CC#CCN2CCOCC2)C(=O)O1.O=C(O)C(=O)O (stereo not drawn) | -5.51
COc1ccc(/C=C/C(=O)OCC(=O)Nc2cc(S(=O)(=O)N(C)C)ccc2Cl)cc1 | 13.3
CC(C)C(NS(=O)(=O)c1ccc(Br)s1)C(=O)O (stereo not drawn) | 8.33
Cc1ccc(C)c(NC(=O)CN(C)C(=O)c2ccccc2OCc2ccccc2Cl)c1 | 12
O=C(O)c1cn(-c2ccc(F)cc2)c(=O)c2ccccc12 | 13
COc1ccc(CN(C)CC(=O)NC(C)c2ccccc2)cc1OC (stereo not drawn) | 4.62
Cc1ccn2cc(-c3cccc(NC(=O)c4ccccc4)c3)nc2c1 | 11.2
COc1ccc(/C=N/NC(=O)c2cccc(Br)c2)cc1COc1ccccn1 | 10.2
O=C1C=C(NCCNc2c(F)c(F)c(CO)c(F)c2F)CCC1 | 7.93
COc1ccc(C(=O)Nc2ccc(NC(=O)c3cccs3)cc2)cc1Cl | 20.6
CC1=C(C(=O)OC(C)C)C(c2ccc(C)o2)C(C(=O)OC(C)C)=C(C)N1 | 7.14
CCOc1ccccc1N(CC(=O)NC1CCCCC1)C(=O)CCCC(=O)Nc1ccccn1 | 4.02
Cc1cc(C(=O)CSc2nnc(-c3ccc(Cl)cc3)n2C)c(C)n1CC1CCCO1 (stereo not drawn) | 12.2
COc1ccc(/C(N)=N/OC(=O)c2ccco2)cc1OC | 13.3
CC(OC(=O)c1ccc(-c2ccc(O)cc2)cc1)C(=O)NC1CCCCC1C (stereo not drawn) | 10.2
CSc1ccc(CN(C)C(=O)CSCC(=O)Nc2cc(C)on2)cc1 | -5.1
CCCCc1cc(=O)oc2cc(OC(C)C(=O)NCc3ccccn3)c(Cl)cc12 (stereo not drawn) | -2.69
COc1ccc(CCNC(=O)c2cc(C3CC3)nc3c2cnn3C(C)C)cc1OC | 8.96

Compound | hERG current change (%, negative = inhibition) at 1uM [%]
CSCCC(NS(=O)(=O)c1ccc2ccccc2c1)C(=O)OCC(=O)c1ccc(C(C)C)cc1 (stereo not drawn) | 8.03
CCOC(=O)C(Cc1ccccc1)NC(=O)Cn1nnc(-c2ccc(SC)cc2)n1 (stereo not drawn) | -7.22
COc1ccc(NC(=O)CCc2nnc3ccc(N4CCC5(CC4)OCCO5)nn23)cc1 | 12.9
CCc1cc2ccccc2nc1SCC(=O)Nc1cc(C)on1 | 5.85
CCC(C)NC(=O)CC(C)C (stereo not drawn) | 4.98
CS(=O)(=O)c1ccc(NC(=O)C2CCCN(C(=O)c3ccc(Cl)cc3)C2)cc1 (stereo not drawn) | -1.77
COc1ccc(Nc2nc(Cl)nc(Nc3ccc(OC)cc3)n2)cc1 | 9
CCCC[C@H]1C2=C3[C@@H](CC(C(=O)OC)=C[C@@H](C(=O)OC)[C@H]3C(C)(C)C2=O)n2c(=O)n(-c3ccccc3)c(=O)n21 | 7.47
O=C(Cc1ccccc1[N+](=O)[O-])OCC(=O)N1CCN(c2ccccc2)CC1 | 8.02
CCN(CC)S(=O)(=O)c1ccc(NS(=O)(=O)c2cccc(C)c2)cc1 | 5.29
CC1CCN(CCCNC(=O)c2ccc(N3CCCC3=O)cc2)CC1 | 8.23
Cc1ccccc1S(=O)(=O)Cc1ccc(C(=O)NCCN2CCN(Cc3ccccc3)CC2)o1 | -14.6
O=C(NCc1ccccn1)c1ccccc1OCc1ccc(F)cc1 | -22.7
C=CCn1c(SCC(=O)Nc2sccc2C(N)=O)nc2ccccc2c1=O | 9.41
O=C(NCc1ccc(Cl)c(Cl)c1)c1ccco1 | -1.16
CCOc1ccc(NC(=O)c2ccc(NC(=O)C3CCCO3)cc2)cc1 (stereo not drawn) | 11.3
CCCc1nnc(NC(=O)CCC(=O)N2CCN(S(=O)(=O)c3ccc(C)cc3)CC2)s1 | 13.1
CC(C)(C)c1ccc(-c2nc(C=O)c3ccccn23)cc1 | -7.91
COC(=O)CSc1cc(C)nc(SC)n1 | 0.266
Cc1ccccc1-c1coc2cc(O)ccc2c1=O | 8.38
COc1ccccc1CNC(=O)CCC(=O)N1C[C@H]2C[C@@H](C1)c1cccc(=O)n1C2 | 2.03
